ChEMBL document CHEMBL4888484, “Replenishing the malaria drug discovery pipeline: Screening and hit evaluation of the MMV Hit Generation Library 1 (HGL1) against asexual blood stage Plasmodium falciparum ,using a nano luciferase reporter read-out” (2022)
Screen size: about 150,000 compounds; about 540 (0.36%) showed an effect of 50% or more. This is one part of the list.

These compounds were tested on Plasmodium falciparum (assay: Primary screen in NF54 nanoGlo assay, in single point, at 2uM, 72h; a lower Z score goes with more inhibition). Conditions: timepoint 72 hour.
Assay type: functional, Erythrocyte

Q: What does the source list for `CC(C)(O)CN1CCN(C(=O)c2cc3c([nH]2)CCCC3)CC1`?
A: % Inhibition: 2%; Z score: -0.41

Q: With `Cc1cccc(-c2nocc2CCC(=O)N2CCN(c3ccccn3)CC2)c1` as the compound, how does the “% Inhibition” value read?
A: -14%

Q: And the Z score?
A: 1.92

Q: How did the “% Inhibition” value turn out when `N[C@H]1CCN(c2ncncc2-c2nc(-c3ccsc3)no2)C1` was run?
A: -7%

Q: And the Z score?
A: 0.83

Q: What does the source list for `O=C(NCCC(c1ccccc1)c1ccccc1)c1cc(=O)c(OCc2ccccc2)c[nH]1`?
A: % Inhibition: -4%; Z score: 0.56

Q: For `Cc1nnc(-c2ccccc2-c2cc(F)cc3c2O[C@@H](CN)C3)o1`, which “% Inhibition” value is on record?
A: 0%

Q: And the Z score?
A: 0.08

Q: For `CCn1nc(C)c(CNc2cncc(-c3cccs3)n2)n1`, which “% Inhibition” value is on record?
A: 17%

Q: What about the Z score of the same compound?
A: -2.16

Q: For `OCc1cccc(NCc2cnc(-c3cccs3)s2)c1`, which “% Inhibition” value is on record?
A: 0%

Q: What about the Z score of the same compound?
A: -0.06

Q: How did the “% Inhibition” value turn out when `CC1(C#N)CCN(C(=O)Nc2cccc(CCC(F)(F)F)c2)CC1` was run?
A: 8%

Q: What about the Z score of the same compound?
A: -1.08

Q: `CCC1CN(C(=O)c2cnc3c(c2)NC(=O)CO3)CC(CC)O1` (configuration not stated) was tested. Which “% Inhibition” value did it give?
A: -10%

Q: What about the Z score of the same compound?
A: 1.64

Q: With `CN(C(=O)C1CCS(=O)(=O)CC1)c1cc(Cl)cc(Cl)c1` as the compound, how does the “% Inhibition” value read?
A: 7%

Q: What about the Z score of the same compound?
A: -0.82

Q: How did the “% Inhibition” value turn out when `Cc1cc(C)nc(CCNc2nc(C)cc(C3CCC3)n2)n1` was run?
A: -5%

Q: What about the Z score of the same compound?
A: 0.58

Q: With `O=C(CNc1ccccc1Oc1ncc(Cl)cc1Cl)N1CCOCC1` as the compound, how does the “% Inhibition” value read?
A: -8%

Q: And the Z score?
A: 1.35

Q: Which results are given for `O=C1c2ccccc2[C@H]2N1CCN2c1ccccc1`?
A: % Inhibition: 38%; Z score: -4.9

Q: Which results are given for `CC(C)(C)OC(=O)NCc1c(O)ccc2ncccc12`?
A: % Inhibition: 5%; Z score: -1.02

Q: `CCOCCC(=O)NCC1(CC)CCCC1` was tested. Which “% Inhibition” value did it give?
A: -4%

Q: What about the Z score of the same compound?
A: 0.54

Q: Which “% Inhibition” value does the source give for `CCOc1ccccc1C(=O)N1C[C@H]2CN(C(=O)C(C)C)C[C@@]2(CO)C1` here?
A: -9%

Q: What about the Z score of the same compound?
A: 1.21

Q: What does the source list for `Cc1c(C2=NO[C@H]3C(=O)N(c4ccc5ccccc5c4)C(=O)[C@@H]23)cnn1C`?
A: % Inhibition: 50%; Z score: -5.99

Q: What does the source list for `Cc1ccc(-n2nc(C)c3c(N)c4c(nc32)CCCC4=O)cc1`?
A: % Inhibition: -1%; Z score: 0.22

Q: With `CC1CCCN(c2nc3nonc3nc2N2CCCC(C)C2)C1` (configuration not stated) as the compound, how does the “% Inhibition” value read?
A: 8%

Q: And the Z score?
A: -0.91

Q: For `CCN1CCCN(CCOc2ccccc2)CC1`, which “% Inhibition” value is on record?
A: -8%

Q: And the Z score?
A: 1.57

Q: `Nc1ncc(CN2CCC(Cc3nnc(CO)n3-c3ccccc3)CC2)cn1` was tested. Which “% Inhibition” value did it give?
A: 1%

Q: What about the Z score of the same compound?
A: -0.13

Q: `O=C(CC[C@@H]1CCCN2CCCC[C@H]12)NCc1ccc(C(=O)O)s1` was tested. Which “% Inhibition” value did it give?
A: 6%

Q: And the Z score?
A: -0.56

Q: With `CC(C)C[C@H]1NC(=O)C(c2cccs2)NC1=O` (some centres not stated) as the compound, how does the “% Inhibition” value read?
A: -19%

Q: And the Z score?
A: 2.53

Q: Which “% Inhibition” value does the source give for `Cc1oc(C#N)cc1C(=O)NC(C)C1CCN(Cc2ccccc2)C1` (configuration not stated) here?
A: -17%

Q: And the Z score?
A: 1.71

Q: `CCN(Cc1ncnn1C)C1CCCCC1C` (configuration not stated) was tested. Which “% Inhibition” value did it give?
A: -7%

Q: And the Z score?
A: 1.37

Q: Which “% Inhibition” value does the source give for `O=S(=O)(c1cccnc1)N1CC[C@H](c2nc(-c3ccccc3)no2)C1` here?
A: -11%

Q: What about the Z score of the same compound?
A: 1.44

Q: For `O=C1[C@@H]2CCCN2C(=O)N1Cc1cc(F)ccc1Br`, which “% Inhibition” value is on record?
A: 3%

Q: And the Z score?
A: -0.6

Q: With `Cc1cc(C)n(-c2ncc(NC(=O)c3ccccc3Cl)cn2)n1` as the compound, how does the “% Inhibition” value read?
A: -8%

Q: What about the Z score of the same compound?
A: 1.18

Q: With `Cc1cccc(NC(=O)[C@@H](C#N)C(=O)COc2cccc(C)c2)c1` as the compound, how does the “% Inhibition” value read?
A: -6%

Q: What about the Z score of the same compound?
A: 1.17

Q: `NC(=O)c1ccc(-c2nc3c(c(N4CCc5ncccc5C4)n2)CCNC3)cc1` was tested. Which “% Inhibition” value did it give?
A: -12%

Q: And the Z score?
A: 1.88

Q: `COc1ccc(CCN2C(=O)N[C@@H](CC(=O)N3CCOCC3)C2=O)cc1` was tested. Which “% Inhibition” value did it give?
A: -9%

Q: And the Z score?
A: 1.38

Q: For `CN(Cc1cccc(F)c1)C(=O)c1cc(S(=O)(=O)N2CCOCC2)ccc1N1CCCC1`, which “% Inhibition” value is on record?
A: -5%

Q: What about the Z score of the same compound?
A: 0.75

Q: Which “% Inhibition” value does the source give for `O=c1n(CCOc2ccccc2)nc2c(S(=O)(=O)N3CCCC3)cccn12` here?
A: -11%

Q: What about the Z score of the same compound?
A: 1.73

Q: For `O=S(=O)(N=C1CCCCCCN1)c1cc(Br)ccc1Br`, which “% Inhibition” value is on record?
A: 2%

Q: What about the Z score of the same compound?
A: -0.38

Q: For `Cc1ncnc(N(C)C[C@H](C)c2nccs2)c1C`, which “% Inhibition” value is on record?
A: 26%

Q: What about the Z score of the same compound?
A: -3.79

Q: Which “% Inhibition” value does the source give for `COC(=O)CN(CCOC1CCCCC1C)Cc1cnn(C)c1` (configuration not stated) here?
A: -3%

Q: What about the Z score of the same compound?
A: 0.27

Q: Which “% Inhibition” value does the source give for `CC(C)c1nnnn1CC(=O)N1CCOc2c(F)ccc(F)c21` here?
A: -7%

Q: What about the Z score of the same compound?
A: 1.23

Q: Which results are given for `COC1CCC2OCCN(C(=O)c3ccccc3CN3CCOCC3)C2C1` (configuration not stated)?
A: % Inhibition: -9%; Z score: 1

Q: Which “% Inhibition” value does the source give for `O=C(NC1CC1)N1CCN(C(c2ccccc2)c2ccccc2)CC1` here?
A: 0%

Q: What about the Z score of the same compound?
A: -0.03

Q: Which results are given for `Cc1nc(-c2cccc(C(=O)N3C[C@H]4CC[C@@H](C3)[C@H]4O)c2)nn1C`?
A: % Inhibition: 10%; Z score: -1.84

Q: How did the “% Inhibition” value turn out when `CC(C)[C@H](NCc1cnn(C(C)C)c1)C1(CO)CCCC1` was run?
A: -7%

Q: And the Z score?
A: 0.98

Q: For `CCn1c(CO)nnc1[C@H]1C[C@@H](NS(=O)(=O)c2cc(C)ccc2OC)C1`, which “% Inhibition” value is on record?
A: -8%

Q: What about the Z score of the same compound?
A: 0.93

Q: `Cc1cccc(N(C)S(=O)(=O)c2c(C(=O)N3CCOCC3)c(C)n(C)c2C)c1` was tested. Which “% Inhibition” value did it give?
A: -11%

Q: And the Z score?
A: 2.19

Q: `CCc1cc(C(=O)N2CCC[C@@H]2C(=O)O)sc1C` was tested. Which “% Inhibition” value did it give?
A: -5%

Q: And the Z score?
A: 0.68

Q: How did the “% Inhibition” value turn out when `COC[C@H]1CCN1C(=O)c1nnn(C)c1C` was run?
A: 0%

Q: And the Z score?
A: -0.01

Q: With `COC(=O)c1ccccc1NC(=O)N1CCC2(CCC(=O)N(C)CC2)CC1` as the compound, how does the “% Inhibition” value read?
A: -12%

Q: And the Z score?
A: 1.43

Q: `CCOC(=O)N1CCN([C@@H](CC)CO)CC1` was tested. Which “% Inhibition” value did it give?
A: 1%

Q: What about the Z score of the same compound?
A: -0.16

Q: Which results are given for `O=C(NCCc1cn[nH]c1)Nc1ccc(C2CCC2)cn1`?
A: % Inhibition: -6%; Z score: 1.13

Q: For `Cc1ccsc1[C@@H](O)CNC(=O)NC1CCCCC1`, which “% Inhibition” value is on record?
A: -13%

Q: And the Z score?
A: 2.17

Q: Which “% Inhibition” value does the source give for `CN(C)C(=O)N(CCN1CCCCC1)[C@H]1CCN(C(=O)CCC2CCCCC2)C1` here?
A: -5%

Q: What about the Z score of the same compound?
A: 0.68

Q: What does the source list for `COc1cc(Cl)c(Cl)cc1NC(=O)N1CCOCC2(CCC2)C1`?
A: % Inhibition: -8%; Z score: 0.88

Q: With `Cc1nc2cc(NC(=O)c3ccc4ccccc4n3)ccc2o1` as the compound, how does the “% Inhibition” value read?
A: -13%

Q: And the Z score?
A: 2.4

Q: With `COCCn1cnnc1CNC(=O)N1CCCN(c2ccccc2C)CC1` as the compound, how does the “% Inhibition” value read?
A: -4%

Q: What about the Z score of the same compound?
A: 0.64

Q: With `CC(C)c1nnc(-c2ccccc2)c(N2CCOCC2)n1` as the compound, how does the “% Inhibition” value read?
A: -11%

Q: And the Z score?
A: 1.26

Q: What does the source list for `O=C(Cc1cccs1)NC1CC2CCC1C2` (configuration not stated)?
A: % Inhibition: -3%; Z score: 0.4

Q: Which results are given for `C[C@@H](Cn1cncn1)NC(=O)Nc1ccc(F)cc1OC(F)F`?
A: % Inhibition: -10%; Z score: 1.69
